Data as given in PubChem BioAssay AID1745853 (National Center for Advancing Translational Sciences (NCATS), 2022).
The other results are listed elsewhere or left out. These are further read-outs of the screen, such as a control signal, another cell line or another target. No call is given for them.

Assays:
Test in all cases: Primary Screen for Target Class Profiling of Small Molecule Inhibitors of Methyltransferases
[1] = biological target: Glycine N-methyltransferase (Homo sapiens) (UniProt Q14749); conditions: purified enzyme, MTase-Glo SAH luminescence; measured here: GNMT inhibition; at 40 µM; stronger effect = lower value
Method in brief: (§1)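 Each enzyme was reacted with SAM and its substrate, with compounds tested once at 40 uM; SAH formed was read by MTase-Glo luminescence.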

[2] = biological target: Guanidinoacetate N-methyltransferase (Homo sapiens) (UniProt Q14353); conditions: purified enzyme, MTase-Glo SAH luminescence; measured here: GAMT inhibition; at 40 µM; stronger effect = lower value
Method in brief: as §1

[3] = biological target: Histamine N-methyltransferase (Homo sapiens) (UniProt P50135); conditions: purified enzyme, MTase-Glo SAH luminescence; measured here: HNMT inhibition; at 40 µM; stronger effect = lower value
Method in brief: as §1

[4] = biological target: Nicotinamide N-methyltransferase (Homo sapiens) (UniProt P40261); conditions: purified enzyme, MTase-Glo SAH luminescence; measured here: NNMT inhibition; at 40 µM; stronger effect = lower value
Method in brief: as §1

[5] = biological target: Phenylethanolamine N-methyltransferase (Homo sapiens) (UniProt P11086); conditions: purified enzyme, MTase-Glo SAH luminescence; measured here: PNMT inhibition; at 40 µM; stronger effect = lower value
Method in brief: as §1
% is set by controls: 0 for no effect and ±100 for the full control effect.

SMILES | activity change, negative = inhibition [1] | activity change, negative = inhibition [2] | activity change, negative = inhibition [3] | activity change, negative = inhibition [4] | activity change, negative = inhibition [5]
COc1ccc(CNC(=O)[C@H]2CNC[C@H](C(=O)N3CCCC3)C2)c(F)c1F | -6.06% | -3.25% | -2.93% | -6.08% | -10.9%
CC(=O)NC1(C)CCCN(Cc2cc(-c3c(C)noc3C)cs2)C1 (stereo not given) | -1.86% | 1.11% | -1.35% | -3.64% | -1.22%
CC1(C(=O)NCc2ccc(F)cc2)Cn2cnc(C(=O)NC3CC3)c2C(=O)N1C1CC1 (stereo not given) | -1.18% | 0% | 4% | 1.6% | -0.027%
CN(CC(=O)Nc1cccc(C(F)(F)F)c1)S(=O)(=O)c1ccc2[nH]c3c(c2c1)CCCC3 | -10% | -3.08% | -10% | -14% | -7.69%
O=C(C1CCCN(c2cnn(Cc3ccccc3)c(=O)c2)C1)N1CCCN(c2ncccn2)CC1 (stereo not given) | -2.17% | -1.04% | -5.27% | -7.23% | 0.438%
FC(F)c1nc2ccccc2n1-c1nc(N2CCOCC2)nc(N2CCOCC2)n1 | 1.63% | 2.84% | 7.24% | -15.6% | -3.14%
CCCNC(=O)N1CCc2nc(N3CCN(C)CC3)sc2C1 | -3.35% | -0.207% | -3.49% | 0.179% | 4.55%
CCOc1ccc(-c2ccnc(NC[C@@H]3CCCO3)n2)cc1C(=O)O | -7.43% | -4.45% | -5.72% | -10.3% | -13.4%
CCn1cc(CN2CCCC23CCN(c2cc(C)nc4ccccc24)CC3)c(C)n1 | -44.4% | -8.62% | -72.4% | -36.1% | -23.5%
COc1ccccc1CN1C(=O)c2cc3ccccc3n2CC1(C)C(=O)NCc1ccccc1 (stereo not given) | 2.95% | 1.06% | 5.97% | 1.29% | -1.8%
COCCN[C@H]1[C@@H]2OC[C@@H](O2)[C@@H](NCc2cnc3ccccc3c2)[C@@H]1O | -7.3% | -11.2% | -2.73% | -15.9% | 3.01%
COCCN1C(=O)c2cc3sccc3n2CC1(C)C(=O)NC1CCCCCC1 (stereo not given) | -5% | 2.21% | -6.43% | -13.6% | -6.21%
CCn1c(=O)n(CC)c2cc(S(=O)(=O)N3CCN(c4ccc(OC)cc4)CC3)ccc21 | 11.4% | 1.78% | 12.8% | 3.1% | 9.42%
Cc1ncoc1C(=O)N1CC[C@@H]2COCCN(Cc3ccncc3)[C@@H]2C1 | -3.01% | -0.916% | 0.417% | -6.16% | -1.43%
COC(=O)C1=CN(Cc2cccc(Cl)c2)S(=O)(=O)N=C1C | -2.39% | 0.714% | 2.53% | -0.178% | -5.12%
Cc1cc2c(cc3n2CC(C)(C(=O)NC2CCCCC2)N(Cc2ccccc2)C3=O)o1 (stereo not given) | -0.386% | 0.315% | -0.18% | -1.86% | -0.802%
COc1ccc(CCc2nc(C3CC(=O)N(c4ccc(Cl)cc4)C3)no2)cc1 (stereo not given) | -8.12% | -3.8% | -1.51% | -11.8% | 3.02%
CC(=O)Nc1ccc(CN2CC3(Cc4ccccc4NC3=O)C2)cc1 | -11.4% | -4.54% | -3.46% | -11.5% | -14.8%
CN(C)c1ccnc2sc3c(=O)n(N4CCCCCC4)cnc3c12 | -9.54% | -5.47% | -0.769% | -43.3% | -9.59%
